{
  "source": "PubChem BioAssay (NCATS)",
  "key": {"[1]": {"assay": "qHTS of pediatric cancer cell lines to identify multiple opportunities for drug repurposing: Primary screen for SK-N-MC cells (AID 1347093)"}, "[2]": {"system": "Zika virus NS2B-NS3 protease", "assay": "Primary screen GU AMC qHTS for Zika virus inhibitors (AID 1347154); note: nearly all actives have a fitted effect of over 70% in size", "in_short": "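Fluorogenic AMC-substrate cleavage by noncovalent NS2B-NS3 protease complex (25 nM, pH 8.0 Tris buffer with Tween 20) followed for 15 minutes at room temperature (~20% conversion). Percent inhibition from ex340/em450 signal change, fitted by 4-parameter Hill equation.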"}, "[3]": {"assay": "Confirmatory screen NINDS Rhodamine qHTS for Zika virus inhibitors (AID 1347161); note: nearly all actives have a fitted effect of over 60% in size", "in_short": "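Percent inhibition, normalized to uninhibited and enzyme-free controls, is fitted to a 4-parameter Hill equation. Fluorescence change comes from a 15-min cleavage of 1.5 microM bis-peptide Rhodamine110 substrate by 25 nM linked NS2B-NS3 at room temperature.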"}, "[4]": {"assay": "Tertiary RLuc qRT-PCR qHTS assay for Zika virus inhibitors (AID 1347169); note: nearly all actives have a fitted effect of over 55% in size", "source_text": "Avindra Nath, Ph.D., National Institute of Neurological Disorders and Stroke (NINDS), Bethesda, MD\nRadhakrishnan Padmanabhan, Ph.D., Georgetown University (GU), Washington D.C.\nZika Virus causes congenital defects, including microcephaly and is associated with Guillain-Barre syndrome, eningoencephalitis and myelitis in infected adult. […] Using a target-based approach, we hope to establish a screening paradigm to uncover novel, cell-active NS2B-NS3 protease (Zika Virus) specific inhibitors from NCATS' collection of small molecules using qHTS.\nFour assay panel was created to identify potential Zika Virus inhibitors. Namely, (1) GU unlinked NS2B-NS3 AMC tagged protease qHTS, (2) GU unlinked NS2B-NS3 Rhodamine tagged protease qHTS, (3) NINDS linked NS2B-NS3 AMC tagged protease qHTS, (4) NINDS linked NS2B-NS3 Rhodamine tagged protease qHTS. Identified inhibitors were re-acquired and tested against secondary confirmatory, orthogonal, and counterscreens to exclude nonspecific inhibition.\nEarly Translation Branch (ETB)\nNational Center for Advancing Translational Sciences (NCATS), Rockville, MD\nNational Institute of Health (NIH), Bethesda, Maryland […]\nFor a follow-up assay, we adapted a high throughput orthogonal assay in 1536-well plate format to use the recombinant virus ZIKV-RLuc, in Vero cells. […] The luminescence signal was measured after 1-1.5 hrs exposure to substrate in ViewLux reader."}, "[5]": {"assay": "Counterscreen qHTS for small molecule stabilizers of the endoplasmic reticulum resident proteome: GLuc-NoTag assay (AID 1508627)", "in_short": "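Luminescence of Gaussia luciferase secreted into the medium (coelenterazine, 0.07x final, unlysed cells) was the read-out. Human SH-SY5Y neuroblastoma cells constitutively secreting untagged GLuc received compound for 19 h, then 100 nM thapsigargin for 4 h.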"}, "[6]": {"target": "Rap guanine nucleotide exchange factor 3 (Homo sapiens) (UniProt O95398)", "sequence (O95398 whole entry, looked up)": "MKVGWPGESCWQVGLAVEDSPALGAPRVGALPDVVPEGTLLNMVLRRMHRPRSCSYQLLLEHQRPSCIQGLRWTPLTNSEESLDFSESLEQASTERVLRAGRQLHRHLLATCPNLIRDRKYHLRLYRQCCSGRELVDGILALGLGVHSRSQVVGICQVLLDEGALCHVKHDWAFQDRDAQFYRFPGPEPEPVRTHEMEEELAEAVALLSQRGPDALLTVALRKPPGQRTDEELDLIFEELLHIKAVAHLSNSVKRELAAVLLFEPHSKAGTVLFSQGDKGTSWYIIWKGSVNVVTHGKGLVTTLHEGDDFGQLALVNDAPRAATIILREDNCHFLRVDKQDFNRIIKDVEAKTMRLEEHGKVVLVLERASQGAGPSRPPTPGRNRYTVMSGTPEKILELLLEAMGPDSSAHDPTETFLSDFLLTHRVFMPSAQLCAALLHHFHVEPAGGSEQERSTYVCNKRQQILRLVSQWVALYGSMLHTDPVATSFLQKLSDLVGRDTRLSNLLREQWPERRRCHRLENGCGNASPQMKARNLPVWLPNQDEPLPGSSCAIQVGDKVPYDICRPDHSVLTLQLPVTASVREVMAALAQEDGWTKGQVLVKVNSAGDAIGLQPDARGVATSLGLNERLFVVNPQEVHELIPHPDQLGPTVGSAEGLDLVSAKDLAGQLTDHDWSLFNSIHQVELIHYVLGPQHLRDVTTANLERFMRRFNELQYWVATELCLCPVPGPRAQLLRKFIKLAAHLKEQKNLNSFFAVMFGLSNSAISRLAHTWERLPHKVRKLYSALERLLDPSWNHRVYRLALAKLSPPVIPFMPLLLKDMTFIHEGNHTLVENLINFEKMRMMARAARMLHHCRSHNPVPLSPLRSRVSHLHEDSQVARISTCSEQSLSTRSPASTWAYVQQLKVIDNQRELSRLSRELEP", "assay": "Confirmatory qHTS for agonist of cAMP-regulated guanine nucleotide exchange factor 3 (EPAC1) (AID 1645881); note: nearly all actives have a fitted effect of over 75% in size"}, "[7]": {"target": "Rap guanine nucleotide exchange factor 4 (Homo sapiens) (UniProt Q8WZA2)", "sequence (Q8WZA2 whole entry, looked up)": "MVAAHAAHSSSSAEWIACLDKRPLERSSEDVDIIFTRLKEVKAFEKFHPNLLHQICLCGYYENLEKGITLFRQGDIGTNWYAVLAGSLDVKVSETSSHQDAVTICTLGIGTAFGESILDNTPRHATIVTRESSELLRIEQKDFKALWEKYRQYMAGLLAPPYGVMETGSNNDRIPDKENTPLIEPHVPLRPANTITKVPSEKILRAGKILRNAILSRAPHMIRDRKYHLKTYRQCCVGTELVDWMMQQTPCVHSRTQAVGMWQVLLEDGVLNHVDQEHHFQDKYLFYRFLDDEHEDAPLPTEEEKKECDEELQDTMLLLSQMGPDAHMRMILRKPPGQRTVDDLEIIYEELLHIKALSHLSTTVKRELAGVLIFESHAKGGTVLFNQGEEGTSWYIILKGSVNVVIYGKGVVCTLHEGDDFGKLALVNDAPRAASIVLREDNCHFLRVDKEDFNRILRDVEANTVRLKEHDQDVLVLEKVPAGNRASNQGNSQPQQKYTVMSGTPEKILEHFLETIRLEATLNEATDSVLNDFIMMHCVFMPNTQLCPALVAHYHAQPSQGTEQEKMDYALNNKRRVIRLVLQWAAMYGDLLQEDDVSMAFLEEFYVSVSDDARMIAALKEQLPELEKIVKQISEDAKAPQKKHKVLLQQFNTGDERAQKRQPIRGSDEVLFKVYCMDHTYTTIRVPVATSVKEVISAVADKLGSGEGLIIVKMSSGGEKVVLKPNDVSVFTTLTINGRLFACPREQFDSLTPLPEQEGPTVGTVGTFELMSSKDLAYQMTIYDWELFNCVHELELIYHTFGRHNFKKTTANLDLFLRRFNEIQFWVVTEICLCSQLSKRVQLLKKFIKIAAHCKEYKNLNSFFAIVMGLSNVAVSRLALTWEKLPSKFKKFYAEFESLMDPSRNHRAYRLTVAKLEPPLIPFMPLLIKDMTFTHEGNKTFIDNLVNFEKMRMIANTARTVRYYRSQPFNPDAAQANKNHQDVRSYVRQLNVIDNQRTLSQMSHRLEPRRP", "assay": "Confirmatory qHTS for agonist of cAMP-regulated guanine nucleotide exchange factor 4 (EPAC2) (AID 1645884);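 note: nucleotide exchange releases bodipy-GDP from Rap1 and this lowers its fluorescence; nearly all actives have a fitted effect of over 65% in size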"}},
  "note": "Inconclusive results are not listed. Calls come from the whole dose curve; as a rule, active = well fitted curve in the direction sought with a large enough effect; inconclusive = small, poorly fitted or top-dose-only effect, or another doubt; inactive = no such curve, though single readings can be large; an effect the other way counts as inactive or inconclusive. Some compounds were tested as several samples or in several runs, with calls that do not always agree. A number of entries come with more than one value. They are shown here; other results are not. An entry can have further records. Values given together are repeated measurements across runs, samples, wells, individuals or studies. Marks in square brackets tell the records apart. A, B and so on number the origins entry by entry. Potency is the fitted concentration of half-maximal effect.",
  "data": [
    {"smiles": "COc1ccnc(CS(=O)c2nc3ccc(OC(F)F)cc3[nH]2)c1OC", "note": "(configuration not stated)", "values": [
      {"measurement": "Potency", "setting": "[1]", "result": "inactive [sample A] and active: 23.5 µM [sample B]"}
    ]},
    {"smiles": "O=C(O)Cc1cccc(OCCCN(Cc2cccc(C(F)(F)F)c2Cl)CC(c2ccccc2)c2ccccc2)c1", "values": [
      {"measurement": "Potency", "setting": "[2]", "result": "inactive [sample A] and active: 7.64 µM [sample B]"}
    ]},
    {"smiles": "N#CC1(c2cccc(C(=O)Nc3cc(Oc4ccc5nc(NC(=O)C6CC6)sc5n4)ccc3F)c2Cl)CC1", "values": [
      {"measurement": "Potency", "setting": "[3]", "result": "inactive [sample A] and active: 15.6 µM [sample B]"},
      {"measurement": "Potency", "setting": "[4]", "result": "inactive [sample A] and active: 658 nM [sample B]"}
    ]},
    {"smiles": "CN(C(Cc1ccc(OS(=O)(=O)c2cccc3cnccc23)cc1)C(=O)N1CCN(c2ccccc2)CC1)S(=O)(=O)c1cccc2cnccc12", "note": "(configuration not stated)", "values": [
      {"measurement": "Potency", "setting": "[5]", "result": "inactive [sample A] and active: 7.94 µM [sample B]"}
    ]},
    {"smiles": "Cc1cc2nc3c(=O)[nH]c(=O)nc-3n(CC(O)C(O)C(O)CO)c2cc1C", "note": "(configuration not stated)", "values": [
      {"measurement": "Potency", "setting": "[6]", "result": "inactive [sample A] and active: 79.3 µM [sample B]"},
      {"measurement": "Potency", "setting": "[7]", "result": "inactive [sample A] and active: 88.9 µM [sample B]"}
    ]}
  ]
}
